What is called IC50 is the midpoint of a concentration-inhibition curve. A lower IC50 goes with greater potency.

Where only a bound is given, the exact number is not on record here.

The test addresses hERG (human ether-a-go-go-related gene) potassium channel (Homo sapiens (Human), UniProt Q12809). Put plainly: cell-based.
`CN1C(=O)N(c2cccc(C(F)(F)F)c2)C2=C(C(=O)CC2)[C@H]1c1ccc(C#N)cc1S(=O)(=O)CCO` [Example B.1.2B] returned an IC50 greater than 30 µM.

Compound `CN1C(=O)N(c2cccc(C(F)(F)F)c2)C2=C(C(=O)CC2)C1c1ccc(C#N)cc1CO` (single isomer, unassigned) [Example A.1A, 3-Hydroxymethyl-4-[3-methyl-2,5-dioxo-1-(3-trifluoromethyl-phenyl)-2,3,4,5,6,7-hexahydro-1H-cyclopentapyrimidin-4-yl]-benzonitrile] displayed an IC50 greater than 30 µM.

For the compound `CN1C(=O)N(c2ccnc(C(F)(F)F)c2)C2=C(C(=O)CC2)C1c1ccc(C#N)cc1S(C)(=O)=O` (single isomer, unassigned) [Example D.1A, 3-Methanesulfonyl-4-[3-methyl-2,5-dioxo-1-(2-trifluoromethyl-pyridin-4-yl)-2,3,4,5,6,7-hexahydro-1H-cyclopentapyrimidin-4-yl]-benzonitrile], the IC50 was greater than 30 µM.

Values taken from patent publication US9475779B2, “Substituted bicyclic dihydropyrimidinones and their use as inhibitors of neutrophil elastase activity” (priority 2014, dated 2016).
